Results published in PubChem BioAssay AID1963576 (National Center for Advancing Translational Sciences (NCATS), 2024).
Hit rate of the full screen: of about 46,000 compounds, about 60 (0.1%) were called active. Roughly 3% stayed inconclusive and do not appear here. Calls come from the whole dose curve; as a rule, active = well fitted inhibition curve with a large enough effect; inconclusive = small, poorly fitted or top-dose-only effect; inactive = no such curve, though single readings can be large or run the other way. Some of the results follow.

Assay: Primary qHTS assay for Inhibitors of ovarian cancer metastasis using an organotypic tumor microenvironment (TME) model.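 For activity change, negative = inhibition: plate controls were DMSO wells for no effect and tomatine positive control wells for full effect.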 Note: nearly all actives have a fitted effect of over 65% in size.
Conditions: SKOV3ip1-GFP adhesion/invasion on 3D omental model, fluorescence; series mostly up to 45.8 µM; activity change, negative = inhibition: at the top concentration
Procedure, shortened: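 Adhesion/invasion was scored as fixed GFP-labeled SKOV3ip1 cell counts (488/509 nm), normalized to DMSO and tomatine controls. Cancer cells in serum-free medium, with four compound doses (0.36-46 umol/L), sat 2 hr at RT then 16 hr at 37 C on a 48 hr fibroblast/mesothelial/ECM culture.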

Activity change, negative = inhibition, inactive:
O=C(c1ccc(Nc2nc3ccccc3n3nnnc23)cc1)N1CCN(c2cccc(C(F)(F)F)c2)CC1 -0.603%
CCOC(=O)c1cccc(NS(=O)(=O)c2cc3c(cc2C)NC(=O)CO3)c1 -5.49%
Cn1c(SCc2ccc(Br)cc2)nc2c([nH]c3ccccc32)c1=O -8.14%
Cc1cccn2c(=O)c3cc(C(=O)Nc4ccc(Cl)c(Cl)c4)sc3nc12 1.94%
Cc1ccc(Nc2ccc(N3CCN(C(=O)c4ccc([N+](=O)[O-])cc4)CC3)nn2)cc1 -9.77%
Cc1ccc(OCC(=O)OCc2cc(=O)n3nc(C4CC4)sc3n2)cc1 3.82%
Cc1cc(C)n(C(C)CC(=O)NCc2ccc(Cl)cc2)n1 (stereo not given) 0.71%
Cc1c(Cl)cccc1-n1ncc(C(=O)N2CCOCC2)c1C1CCN(C(=O)OC(C)(C)C)CC1 -2.44%
CCNC(=O)Cn1nc(C)n2c(cc3c(OC)cccc32)c1=O 4.57%
Cc1ccc(NC(=O)C2CCN(c3nnc(C)c4c(C)n(-c5ccccc5)nc34)CC2)cc1Cl -2.98%
Cc1oc2ccc(O)c(CN3CCOCC3)c2c1C(=O)Nc1cccc(Cl)c1C 1.52%
CCOC(=O)c1c(Oc2ccc(C(C)=O)cc2)nnc(-c2ccccc2)c1-c1ccccc1 -18.9%
COc1ccc(C(=O)NCCn2cc(SCC(=O)Nc3ccc4c(c3)OCCO4)c3ccccc32)cc1OC 3.22%
CCOC(=O)Cn1c(=O)n(-c2ccccc2OC)c2nc(-c3ccc(C(C)C)cc3)nc(C(N)=O)c21 -9.02%
COCCCNC(=O)C1CCN(c2cc(C)nc3c(-c4ccc(Cl)cc4)c(C)nn23)CC1 23.7%
O=C(CC1N=C2c3ccccc3N=C(SCC(=O)Nc3ccc(F)cc3)N2C1=O)NCc1cccs1 (stereo not given) -8.14%
CCCNC(=O)CSc1nc(-c2ccc(OC)cc2)cc(C(F)(F)F)n1 -0.147%
O=C(NCc1ccccc1)c1ccc2oc(=O)n(Cc3ccccc3)c2c1 120%
CC1CCN(C(=O)c2cccc(NC(=O)c3nsc4ccccc34)c2)CC1 9.67%
COCCNC(=O)c1ccc2c(c1)N=C(C)c1cc(C)ccc1S2 -9.62%
NS(=O)(=O)c1ccc2nc(NC(=O)COc3ccc(Cl)cc3Cl)sc2c1 7.5%
COc1cccc(C(=O)Nc2cccc(C(=O)OCc3cc(=O)n4c(C)csc4n3)c2)c1 -5.59%
Cn1c(SCC(=O)Nc2nc3ccccc3s2)ncc(C(=O)Nc2ccc(F)cc2)c1=O -5.01%
COc1ccccc1Cc1nc2ccccc2nc1SCC(=O)NCc1ccccc1Cl -3.43%
CN1CCc2nc3sc(C(=O)Nc4ccccc4C(F)(F)F)c(N)c3cc2C1 -7.45%
CCOc1ccc(-n2nc3ccc(NC(=O)c4ccc(-c5cccc(Cl)c5)o4)cc3n2)cc1 15%
Cc1nc2scc(C)n2c(=O)c1S(=O)(=O)Nc1cccc(C(F)(F)F)c1 -2.57%
COc1ccccc1C(=O)OCc1cc(=O)n2nc(C(C)C)sc2n1 -5.74%
CC(=O)Nc1ccc(NC(=O)CCS(=O)(=O)c2ccc3c(c2)CC(=O)N3C)cc1 54.9%
CC1CCCCN1CCCNC(=O)c1cc(Sc2ccc(Cl)cc2)nc2ccccc12 (stereo not given) -5.99%
CCOC(=O)CC(=O)CSc1nc2ccccc2c(=O)n1CCc1ccc(S(N)(=O)=O)cc1 5.24%
CC1Cc2cc(S(=O)(=O)NCc3ccc(N(C)C)cc3)ccc2N1C(=O)C1CCC1 (stereo not given) 15.5%
CCN1C(=O)C(Cc2nc3ccccc3c(=O)n2-c2ccc(OC)cc2)c2ccccc21 (stereo not given) -2.18%
Cc1c(CN2CCN(S(C)(=O)=O)CC2)sc2c(N3CCOCC3)nc(-c3cnc(N)nc3)nc12 -1.85%
CCOC(=O)C1CCC(CN(Cc2cccc(Br)c2)S(=O)(=O)c2ccc(Cl)cc2)CC1 (stereo not given) -9.58%
Cc1ccc(C)c(CNC(=O)c2cc3ccccn3n2)c1 -2.96%
O=C(O)c1ccc(-c2cc3cccnc3c(-c3ccc4nonc4c3)n2)cc1 7.04%
CCC(C)NC(=O)c1sc2nc(C)c(C(=O)Nc3ccc(C)cc3C)c(-c3ccccc3Cl)c2c1N (stereo not given) -1.19%
COc1ccccc1CNc1nccn(-c2ccccc2)c1=O -1.06%
CCOC(=O)c1cccc2c1N[C@@H](c1ccc(F)cc1)[C@H]1CC=C[C@@H]21 29.7%
Cn1cc(S(=O)(=O)N2CCCCC2)cc1C(=O)Nc1cccc(C#N)c1 -6.69%

outcome, inactive:
Cc1ccc(S(=O)(=O)NCCc2csc(-c3cccc(F)c3)n2)cc1
CCc1nn2c(=O)cc(COC(=O)C(CC)c3ccccc3)nc2s1 (stereo not given)
CN(C)c1ccc(NC(=O)CSC2=Nc3ccccc3C3=NC(CCC(=O)NCc4cccs4)C(=O)N23)cc1 (stereo not given)
COc1ccc(CC(=O)N2CCc3cc(OC)c(OC)cc3C2COc2ccc(F)cc2)cc1OC (stereo not given)
COc1ccc2c(CNCc3cccs3)c(C(=O)O)n(Cc3ccccc3F)c2c1
CCOC(=O)COc1ccc(C)cc1C(=O)c1ccn2nc(-c3ccc(F)cc3)cc2n1
Cc1c(C(=O)NC(C)c2ccccc2)sc2nc3n(c(=O)c12)CCCC3 (stereo not given)
Cc1ccc2c(=O)c(C(=O)c3cccc(Cl)c3)cn(CC(=O)Nc3ccccc3C(F)(F)F)c2n1
CCCC1=Nc2cc(C(=O)N3CCC(C)CC3)ccc2Sc2ccc(C)cc21
CC1=C(C(=O)OC2CCCCCC2)C(c2cccc(Cl)c2)CC(=O)N1 (stereo not given)
COc1ccc(-c2noc(-c3ccc(NCC4CCCO4)c([N+](=O)[O-])c3)n2)cc1OC (stereo not given)
COc1ccccc1CNC(=O)c1oc2ccc3c(c2c1C)C(=O)CC(C)(C)O3
CC1=Nc2cc(C(=O)NCCc3ccc(Cl)cc3)ccc2Sc2c(C)ccc(C)c21
COc1ccc(N2CC(NC(=O)COc3ccc4ccccc4c3)CC2=O)cc1OC (stereo not given)
COc1ccc(NC(=O)Cn2cc(S(=O)(=O)Cc3ccc(F)cc3)c3ccccc32)cc1OC
COc1ccc(NC(=O)c2cnc(N3CCCCC3)c3ccccc23)cc1Cl
Cc1ccc(-n2c(=O)c3c4c(sc3n(CC(=O)Nc3ccccc3C)c2=O)CCCCC4)cc1C
CCCCC1CCC(C(=O)N2CC(=O)Nc3ccc(Cl)cc3C2c2ccc(F)cc2)CC1 (stereo not given)
Cc1ccc(CNC(=O)Cn2c(=O)n(Cc3ccc(F)cc3)c(=O)c3sc4ccccc4c32)cc1
